Experimental data: patent publication US8263596B2, “Kinase inhibitors and method of treating cancer” (University Health Network, priority 2010, dated 2012)

Columns and labels:
Type in all cases: cell-based
[1] = system: MCF-7 luminal breast cancer cell line; conditions: Homo sapiens, MCF7, 120 h, read-out: Cell Line GI50 Range MCF-7
[2] = system: MDA-MB-468 basal breast cancer cell line; conditions: Homo sapiens, read-out: Cell Line GI50 Range MDA-MB-468
[3] = system: HCC1954 basal breast cancer cell line; conditions: Homo sapiens, read-out: Cell Line GI50 Range HCC-1954
SW620 colon cancer cells = conditions: Homo sapiens, 120 h; SW-620 colon cancer cell line; SRB assay after 5 days culture; read-out: Cell Line GI50 Range SW-620
A549 lung cancer cells = conditions: Homo sapiens, 120 h; A549 lung cancer cell line; SRB assay after 5 days culture; read-out: Cell Line GI50 Range A-549
[4] = MCF-7 luminal breast cancer cell line, SRB assay after 5 days culture
[5] = 120 h, MDA-MB-468 basal breast cancer cell line, SRB assay after 5 days culture
[6] = HCC1954, 120 h, HCC1954 basal breast cancer cell line, SRB assay after 5 days culture
[7] = 120 h, HCC1954 basal breast cancer cell line, SRB assay after 5 days culture

SMILES | GI50 [1] | GI50 ([2]; MDA-MB-468, 120 h) | GI50 ([3]; HCC1954, 120 h) | GI50 [1, 4] | GI50 [2, 5] | GI50 [3, 6] | GI50 (SW620 colon cancer cells) | GI50 (A549 lung cancer cells) | GI50 [3, 7]
O=C1Nc2ccccc2[C@]12CC2c1ccc2cn[nH]c2c1 (mixture of isomers) [Example A2, (1R*,2S*)-2-(1H-indazol-6-yl)spiro[cyclopropane-1,3′-indolin]-2′-one] | > 10000 nM | > 10000 nM | > 10 µM |  |  |  |  |  | 
COc1ccc2c(c1)[C@]1(CC1c1ccc3c(-c4ccc(N5CCN(C)CC5)nc4)n[nH]c3c1)C(=O)N2 (mixture of isomers) [Example A14, (1R*,2S*)-5′-Methoxy-2-(3-(6-(4-methylpiperazin-1-yl)pyridin-3-yl)-1H-indazol-6-yl)spiro[cyclopropane-1,3′-indolin]-2′-one dihydrochloride] | < 100 nM | < 100 nM | 1 to 10 µM |  |  |  |  |  | 
CN(C)Cc1ccc(/C=C/c2n[nH]c3cc(C4C[C@@]45C(=O)Nc4ccccc45)ccc23)cc1 (mixture of isomers) [Example A26, (1R*,2R*)-(E)-2-(3-(4-((dimethylamino)methyl)styryl)-1H-indazol-6-yl)spiro[cyclopropane-1,3′-indolin]-2′-one 2,2,2-trifluoroacetate] |  |  | 1 to 10 µM |  |  |  |  |  | 
O=C1Nc2ncc(Br)cc2[C@]12CC2c1ccc2c(/C=C/c3cccnc3)n[nH]c2c1 (mixture of isomers) [Example A27, (1R*,2S*)-5′-bromo-2-(3-((E)-2-(pyridin-3-yl)vinyl)-1H-indazol-6-yl)spiro[cyclopropane-1,3′-pyrrolo[2,3-b]pyridin]-2′(1′H)-one] |  |  |  | 1000 to 10000 nM | 100 to 1000 nM | 1 to 10 µM | 1 to 10 µM | 1000 to 10000 nM | 
CN1CCN(c2ccc(-c3n[nH]c4cc(C5C[C@@]56C(=O)Nc5ccc(N)cc56)ccc34)cc2)CC1 (mixture of isomers) [Example A86, (1R*,2S*)-5′-amino-2-(3-(4-(4-methylpiperazin-1-yl)phenyl)-1H-indazol-6-yl)spiro[cyclopropane-1,3′-indolin]-2′-one] |  |  |  | > 10000 nM | 1000 to 10000 nM |  | 1 to 10 µM | 1000 to 10000 nM | > 10 µM
NS(=O)(=O)c1cccc(-c2n[nH]c3cc(C4C[C@@]45C(=O)Nc4ccccc45)ccc23)c1 (mixture of isomers) [Example A130, 3-(6-((1R*,2S*)-2′-oxospiro[cyclopropane-1,3′-indoline]-2-yl)-1H-indazol-3-yl)benzenesulfonamide] |  |  |  | 1000 to 10000 nM | 1000 to 10000 nM |  | > 10 µM | > 10000 nM | > 10 µM
COc1ccc2c(c1)[C@]1(CC1c1ccc3c(-c4cccc(C(=O)N5CCN(C)CC5)c4)n[nH]c3c1)C(=O)N2 (mixture of isomers) [Example A149, (1R*,2S*)-5′-methoxy-2-(3-(3-(4-methylpiperazine-1-carbonyl)phenyl)-1H-indazol-6-yl)spiro[cyclopropane-1,3′-indolin]-2′-one 2,2,2-trifluoroacetate] |  |  |  | 1000 to 10000 nM | 1000 to 10000 nM |  | > 10 µM | > 10000 nM | > 10 µM
COc1ccc2c(c1)[C@]1(CC1c1ccc3c(-c4ccc(CCN5CCOCC5)cc4)n[nH]c3c1)C(=O)N2 (mixture of isomers) [Example A159, (1R*,2S*)-5′-methoxy-2-(3-(4-(2-morpholinoethyl)phenyl)-1H-indazol-6-yl)spiro[cyclopropane-1,3′-indolin]-2′-one 2,2,2-trifluoroacetate] |  |  |  | 100 to 1000 nM | 100 to 1000 nM | > 10 µM | 1 to 10 µM | 100 to 1000 nM | 
COc1ccc2c(c1)[C@]1(C[C@H]1c1ccc3c(-c4ccc(N5CCN(C)CC5)cc4)n[nH]c3c1)C(=O)N2 (relative stereo) [Example A38, (1R*,2S*)-5′-Methoxy-2-(3-(4-(4-methylpiperazin-1-yl)phenyl)-1H-indazol-6-yl)spiro[cyclopropane-1,3′-indolin]-2′-one] | 100 to 1000 nM |  | > 10 µM |  |  |  |  |  | 
O=C1Nc2ccccc2[C@]12C[C@H]2c1ccc2c(/C=C/c3ccc(CN4CCCCC4)nc3)n[nH]c2c1 (relative stereo) [Example A63, (1R*,2S*)-(E)-2-(3-((E)-2-(6-(piperidin-1-ylmethyl)pyridin-3-yl)vinyl)-1H-indazol-6-yl)spiro[cyclopropane-1,3′-indolin]-2′-one 2,2,2-trifluoroacetate salt] |  |  | 1 to 10 µM |  |  |  |  |  | 
CN1C(=O)[C@@]2(C[C@H]2c2ccc3c(/C=C/c4ccc(CN5CCCCC5)cc4)n[nH]c3c2)c2ccccc21 (relative stereo) [Example A95, (1R*,2S*)-(E)-1′-methyl-2-(3-(4-(piperidin-1-ylmethyl)styryl)-1H-indazol-6-yl)spiro[cyclopropane-1,3′-indolin]-2′-one 2,2,2-trifluoroacetate] |  |  |  | 1000 to 10000 nM |  |  |  |  | 1 to 10 µM
CCN1CCN(c2ccc(-c3n[nH]c4cc([C@@H]5C[C@@]56C(=O)Nc5ccc(OC)cc56)ccc34)cc2)CC1 (relative stereo) [Example A98, (1R*,2S*)-2-(3-(4-(4-ethylpiperazin-1-yl)phenyl)-1H-indazol-6-yl)-5′-methoxyspiro[cyclopropane-1,3′-indolin]-2′-one 2,2,2-trifluoroacetate] | 100 to 1000 nM |  | > 10 µM |  |  |  |  |  | 
COc1ccc2c(c1)[C@]1(C[C@H]1c1ccc3c(-c4ccc(N5CCN(C)CC5)cc4)n[nH]c3c1)C(=O)N2C (relative stereo) [Example A100, (1R*,2S*)-5′-methoxy-1′-methyl-2-(3-(4-(4-methylpiperazin-1-yl)phenyl)-1H-indazol-6-yl)spiro[cyclopropane-1,3′-indolin]-2′-one 2,2,2-trifluoroacetate] |  |  |  | 100 to 1000 nM | 100 to 1000 nM |  | < 0.1 µM | < 100 nM | 1 to 10 µM
COc1ccc2c(c1)[C@]1(C[C@H]1c1ccc3c(-c4ccc(N5CCC(O)CC5)nc4)n[nH]c3c1)C(=O)N2 (relative stereo) [Example A117, (1R*,2S*)-2-(3-(6-(4-hydroxypiperidin-1-yl)pyridin-3-yl)-1H-indazol-6-yl)-5′-methoxyspiro[cyclopropane-1,3′-indolin]-2′-one 2,2,2-trifluoroacetate] | 1000 to 10000 nM | 100 to 1000 nM | > 10 µM |  |  |  |  |  | 
COc1ccc2c(c1)[C@]1(C[C@H]1c1ccc3c(-c4ccc(N5CCC(O)CC5)cc4)n[nH]c3c1)C(=O)N2 (relative stereo) [Example A118, (1R*,2S*)-2-(3-(4-(4-hydroxypiperidin-1-yl)phenyl)-1H-indazol-6-yl)-5′-methoxyspiro[cyclopropane-1,3′-indolin]-2′-one 2,2,2-trifluoroacetate] |  |  |  | 1000 to 10000 nM | 100 to 1000 nM |  | 1 to 10 µM | 1000 to 10000 nM | > 10 µM
COc1ccc2c(c1)[C@]1(C[C@H]1c1ccc3c(-c4ccc(C5CCNCC5)cc4)n[nH]c3c1)C(=O)N2 (relative stereo) [Example A122, (1R*,2S*)-5′-methoxy-2-(3-(4-(piperidin-4-yl)phenyl)-1H-indazol-6-yl)spiro[cyclopropane-1,3′-indolin]-2′-one 2,2,2-trifluoroacetate] | < 100 nM | < 100 nM | 0.1 to 1 µM |  |  |  |  |  | 
Cc1ccc2c(c1)[C@]1(C[C@H]1c1ccc3c(/C=C/c4ccc(CN(C)C)cc4)n[nH]c3c1)C(=O)N2 (relative stereo) [Example A169, (1R*,2S*)-(E)-2-(3-(4-((dimethylamino)methyl)styryl)-1H-indazol-6-yl)-5′-methylspiro[cyclopropane-1,3′-indolin]-2′-one 2,2,2-trifluoroacetate] | < 100 nM | < 100 nM | 1 to 10 µM |  |  |  |  |  | 
COc1ccc2c(c1)[C@]1(C[C@H]1c1ccc3c(/C=C/c4ccc(N5CCN(C)CC5)cc4)n[nH]c3c1)C(=O)N2 (relative stereo) [Example A174, (1R*,2S*)-(E)-5′-methoxy-2-(3-(4-(4-methylpiperazin-1-yl)styryl)-1H-indazol-6-yl)spiro[cyclopropane-1,3′-indolin]-2′-one 2,2,2-trifluoroacetate] |  |  |  | < 100 nM |  |  |  |  | 
CN1C(=O)[C@@]2(C[C@H]2c2ccc3c(/C=C/c4ccc(N5CCNCC5)cc4)n[nH]c3c2)c2ccccc21 [Example A90, (1R,2S)-(E)-1′-methyl-2-(3-(4-(piperazin-1-yl)styryl)-1H-indazol-6-yl)spiro[cyclopropane-1,3′-indolin]-2′-one hydrochloride] | < 100 nM | < 100 nM | 0.1 to 1 µM |  |  |  |  |  | 
COc1ccc2c(c1)[C@]1(C[C@H]1c1ccc3c(/C=C/c4ccc(CN5CCOCC5)s4)n[nH]c3c1)C(=O)N2 [Example A105, (1R,2S)-5′-methoxy-2-(3-((E)-2-(5-(morpholinomethyl)thiophen-2-yl)vinyl)-1H-indazol-6-yl)spiro[cyclopropane-1,3′-indolin]-2′-one hydrochloride] | < 100 nM | < 100 nM | < 0.1 µM |  |  |  |  |  | 
O=C1Nc2ccccc2[C@]12C[C@H]2c1ccc2c(/C=C/c3ccc(CCN4CCOCC4)cc3)n[nH]c2c1 [Example A205, (1R,2S)-(E)-2-(3-(4-(2-morpholinoethyl)styryl)-1H-indazol-6-yl)spiro[cyclopropane-1,3′-indolin]-2′-one 2,2,2-trifluoroacetate] | 100 to 1000 nM | < 100 nM | 0.1 to 1 µM |  |  |  |  |  | 

Structures can show the parent of a compound that is named as a salt. Where two headings read alike, the source gives them in different places.
